# Measured values reported in PubChem BioAssay AID588855 (National Center for Advancing Translational Sciences (NCATS), 2011).
# Among all 410,000 compounds or so, about 5,000 (1.2%) were called active. This list was built around the results that the source calls inconclusive (neither active nor inactive); the mix of calls is not that of the screen. Calls follow the shape of the dose curve; as a rule, active = well fitted inhibition curve with a large enough effect; inconclusive = small, poorly fitted or top-dose-only effect; inactive = no such curve, though single readings can be large or run the other way. A potency beside an inconclusive call is a rough fit, not a confirmed value.
# Assay: qHTS for Inhibitors of TGF-b; also: nearly all actives have a fitted effect of over 65% in size
# Conditions: HepG2 CAGA-GFP TGF-b/SMAD3 reporter, GFP fluorescence, 18 h, TGF-beta stimulated, 500 pg/mL final; series mostly up to 46.1 µM
# Method in brief: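 Inhibition was scored as loss of TGF-beta-induced (500 pg/mL final, 18 hours, 37 degrees C) GFP in HEPG2 cells carrying a CAGA-GFP reporter, in DMEM with 1% FBS. Well GFP was summed per cell; Activity was normalised to unstimulated and stimulated DMSO wells, then concentration-response fitting.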
# Potency is read from the fitted curve at half-maximal effect; tags tell the direction and shape of the fitted curve.
row,SMILES,Potency
1,CCCC(=O)Nc1ccc2c(c1)nc(CN1CCN(C(=O)OCC)CC1)n2C(C)C,"inconclusive: 0.891 µM [inhibitor, full curve, poor fit]"
2,COc1ccc(NC(=O)CSc2cn(CC(=O)N3CCCCC3)c3ccccc23)c(OC)c1,"inconclusive: 2.82 µM [inhibitor, partial curve, poor fit]"
3,Cn1c(=O)n(Cc2ccccc2Cl)c2ccccc21,inactive
4,O=C(CCl)N(CCCNC(=O)C(F)(F)F)c1ccc([N+](=O)[O-])cc1,"inconclusive: 12.6 µM [inhibitor, partial curve, poor fit]"
5,CCOC(=O)c1ccc(NC(=O)CSc2nc3c(c(=O)n2CC)SC(C)C3)cc1 (configuration not stated),"inconclusive: 35.5 µM [inhibitor, single point]"
6,O=c1cc(-c2ccccc2)c2ccccc2[nH]1,inactive
7,Oc1ccc(Cl)cc1C=Nc1ccc(Br)cc1,inactive
8,CCOC(=O)C(C)Sc1nnc(CSc2nc3nc(C)cc(C)n3n2)o1 (configuration not stated),"inconclusive: 8.91 µM [inhibitor, partial curve, poor fit]"
9,Cc1nc2sc(C(=O)N(C)Cc3ccccc3)c(NC(=O)c3ccccc3)c2c(C)c1Cl,inactive
10,COc1ccc(CC(N)c2csc(NC(=O)Nc3ccc(OC)cc3)n2)cc1 (configuration not stated),"inconclusive: 35.5 µM [inhibitor, single point]"
11,O=C(OCC(=O)N1CCC(Cc2ccccc2)CC1)c1ccccc1O,inactive
12,CCCCC1CCC(C(=O)N2CC(=O)Nc3ccc(F)cc3C2c2ccc(F)cc2)CC1 (configuration not stated),"inconclusive: 22.4 µM [inhibitor, single point]"
13,CC(C)(C)c1ccc(OCc2ccc(C(=O)N/N=C/c3ccc(O)c(O)c3)cc2)cc1,"inconclusive: 20 µM [inhibitor, partial curve, poor fit]"
14,COc1ccc(-n2c(SCC(=O)NCc3cccs3)nnc2-c2ccoc2C)cc1,"inconclusive: 2 µM [inhibitor, partial curve, poor fit]"
15,COc1ccc(OCc2ccc(-c3nc(C#N)c(N4CCN(C)CC4)o3)o2)cc1,inactive
16,CCC1CN(C(=O)NCc2cccc(OC)c2)c2cc(Cl)ccc2O1 (configuration not stated),"inconclusive: 35.5 µM [inhibitor, single point]"
17,c1ccc2c(c1)Cn1nc(Cc3nc4c(s3)CCCC4)nc1-2,"inconclusive: 5.62 µM [inhibitor, partial curve, poor fit]"
18,COc1cc([N+](=O)[O-])cc2cc(C(=O)N3CCCC3)c(=O)oc12,"inconclusive: 10 µM [inhibitor, partial curve]"
19,O=C(CN1CCC(C(=O)c2ccc3c(c2)OCCO3)CC1)Nc1ccccc1F,"inconclusive: 7.94 µM [inhibitor, partial curve, poor fit]"
20,CCOC(=O)c1c(C)[nH]c(C)c1C(=O)COC(=O)c1ccc(Cl)c(S(=O)(=O)NCc2ccccc2)c1,inactive
21,COc1ccc(Cl)cc1-n1c(C)cc(C(=O)OCC(=O)N2CC(=O)Nc3ccccc32)c1C,"inconclusive: 35.5 µM [inhibitor, single point]"
22,O=C1c2[nH]nc(-c3ccc(F)cc3)c2C(c2ccccc2F)N1c1ccccc1 (configuration not stated),"inconclusive: 35.5 µM [inhibitor, single point]"
23,C=CCC[C@@H](Cc1ccc(F)cc1)C(=O)OC[C@@H]1CCCN1C(=O)[C@@H](CC=C)CC(=O)N(CCO)Cc1ccccc1,"inconclusive: 11.2 µM [inhibitor, partial curve, poor fit]"

row,SMILES,Potency
1,COc1cccc(CNC(=O)COC(=O)c2cc([N+](=O)[O-])ccc2N2CCCC2)c1,"inconclusive: 0.501 µM [inhibitor, full curve, poor fit]"
2,OCC1OC(n2cnc3c(N4CCCC4)ncnc32)C(O)C1O (configuration not stated),active: 2.82 µM
3,CCOC(=O)C1=C(C)Nc2ncnn2C1c1c[nH]c2ccccc12 (configuration not stated),"inconclusive: 2.82 µM [inhibitor, partial curve, poor fit]"
4,O=c1cc(Nc2ccc3c(c2)OCCO3)[nH]c(=O)n1-c1ccc(Br)cc1,"inconclusive: 35.5 µM [inhibitor, single point]"
5,CCC(=O)N1CCc2cc(S(=O)(=O)NCCC(=O)N3CCN(c4ccccn4)CC3)ccc21,inactive
6,COc1ccc(Br)cc1CNC(=O)CN1C(=O)c2cccnc2Oc2ccc(C)cc21,"inconclusive: 0.794 µM [inhibitor, full curve, poor fit]"
7,c1ccc(-c2cnnc3ccccc23)cc1,"inconclusive: 3.16 µM [inhibitor, single point]"
8,CCOC(=O)C1CCN(C(=O)c2c(C)oc3c2C(=O)c2ccccc2C3=O)CC1,active: 4.47 µM
9,O=C(NCC1CCN(Cc2ccccc2F)CC1)Nc1ccc(F)c(Cl)c1,"inconclusive: 22.4 µM [inhibitor, single point]"
10,O=C(Nc1ccc([N+](=O)[O-])cc1)Nc1ccc(Cl)cc1F,active: 2.24 µM
11,Cc1ccccc1-c1ccc(=O)n(CC(=O)Nc2ccc(S(=O)(=O)N(C)C)cc2)n1,inactive
12,Cc1ccccc1CN1C[C@@H]2C[C@@H](c3cn[nH]c3-c3ccccc3)N3CCC[C@@]23C1=O,"inconclusive: 20 µM [inhibitor, single point]"
13,O=C(Nc1nnc(Cc2c[nH]c3ccccc23)s1)c1ccc(Cl)cc1Cl,"inconclusive: 11.2 µM [inhibitor, partial curve]"
14,O=C(c1ccccc1)N1CCSc2sccc2C1=O,inactive
15,COCCn1c(C)cc(C(=O)COC(=O)c2cccnc2SC)c1C,"inconclusive: 6.31 µM [inhibitor, single point]"
16,CCc1ccc(NCc2cc3cc4c(cc3n(CC(=O)Nc3ccccc3C)c2=O)OCCO4)cc1,inactive
17,O=C1OC[C@H]2CCCN2C(=O)[C@@H](CC(=O)N(CCO)Cc2ccccc2)C/C=C\CC[C@@H]1Cc1ccc(F)cc1,inactive
18,O=C(Cc1ccc(OCCc2ccccc2)cc1)NO,inactive
19,CCOC(=O)c1ccc(NC(=O)CC(=O)Nc2ccc3nc4n(c(=O)c3c2)CCCCC4)cc1,"inconclusive: 2.51 µM [inhibitor, partial curve, poor fit]"
20,Cc1nn2c(C)c(C(=O)NCCc3ccccc3)cnc2c1-c1ccccc1,"inconclusive: 11.2 µM [inhibitor, partial curve]"
21,N#C/C(=N\Nc1ccc(S(=O)(=O)N2CCCCCC2)cc1)C(N)=S,"inconclusive: 8.91 µM [inhibitor, partial curve]"
22,CCCCc1ccc(NC(=S)NCc2cccc(OC)c2)cc1,"inconclusive: 35.5 µM [inhibitor, single point]"
23,CCOc1ccc(NC(=S)NC(=O)/C=C/c2ccco2)cc1,inactive

row,SMILES,Potency
1,CC(=O)NC1=C(C#N)C(c2ccccc2)c2c(ccc3ccccc23)O1 (configuration not stated),inactive
2,COC(=O)c1ccc(/C=C/C(=O)c2ccc(OC)c(OC)c2)cc1,inactive
3,CCCNC(=O)C(=O)NCC(c1ccc2c(c1)OCO2)N1CCN(c2ccc(F)cc2)CC1 (configuration not stated),inactive
4,O=C(CNC(=O)c1ccccc1F)c1ccccc1,"inconclusive: 10 µM [inhibitor, partial curve, poor fit]"
5,CCOc1cc(/C=C(/C#N)C(=O)Nc2ccc(O)cc2)cc(Br)c1O,"inconclusive: 5.62 µM [inhibitor, single point]"
6,CCCCCC(=O)N1C[C@H](O)[C@@H](n2cc(-c3ccc(F)cc3)nn2)C[C@@H]1c1ccc(OC)cc1,"inconclusive: 28.2 µM [inhibitor, single point]"
7,O=C(c1cn(-c2ccccc2)nc1-c1cccs1)N1CCN(c2ccc(F)cc2)CC1,"inconclusive: 35.5 µM [inhibitor, single point]"
8,O=C(Nc1ncccn1)c1ccc([N+](=O)[O-])o1,"inconclusive: 35.5 µM [inhibitor, single point]"
9,Cc1cc(-c2ccccc2)nc2oc(C(=O)NN)c(N)c12,"inconclusive: 35.5 µM [inhibitor, single point]"
10,COCCCNC(=O)c1cnc2sc(N3CCCCC3)nn2c1=O,inactive
11,COc1ccc(NC(=O)C2CCCN(S(=O)(=O)c3c(C)[nH]c(=O)[nH]c3=O)C2)c(OC)c1 (configuration not stated),inactive
12,Cc1cc(N2CCN(S(=O)(=O)c3ccc(C)c(C)c3)CC2)c2ccccc2n1,"inconclusive: 35.5 µM [inhibitor, single point]"
13,O=C(CCCCCn1c(=O)c2sccc2n(Cc2ccccc2Cl)c1=O)NCc1ccc2c(c1)OCO2,inactive
14,O=c1o[nH]c(-c2ccccc2)c1N=Nc1c(F)cccc1Cl,"inconclusive: 35.5 µM [inhibitor, single point]"
15,O=C(COC(=O)c1ccccc1C(=O)c1ccc(Cl)cc1)NCCc1ccccc1,"inconclusive: 35.5 µM [inhibitor, single point]"
16,O=C1C2C3c4ccccc4C(c4ccccc43)[C@@H]2c2nc3ccccc3n21 (some centres not stated),inactive
17,CCOc1ccc(CN(C)C(=O)c2ccc3c(c2)NC(=O)C(C)S3)cc1OC (configuration not stated),inactive
18,C=C1CCC[C@]2(C)C[C@H]3OC(=O)C(CN4CC(C)OC(C)C4)[C@H]3C[C@@H]12 (some centres not stated),"inconclusive: 35.5 µM [inhibitor, single point]"
19,CCN(C(=O)C1CCN(S(=O)(=O)c2c(C)noc2/C=C/c2ccc(C)cc2)CC1)c1cccc(C)c1,inactive
20,C=CCN(CC=C)c1nc2ccccc2nc1C(C#N)C(=O)OC(C)C (configuration not stated),"inconclusive: 22.4 µM [inhibitor, single point]"
21,C[C@H](CO)N1C[C@H](C)[C@@H](CN(C)S(=O)(=O)c2ccc(Cl)cc2)Oc2ccc(NS(=O)(=O)c3ccccc3)cc2CC1=O,active: 4.47 µM
